Patent US9566290B2, “Boron-containing small molecules” (Anacor Pharmaceuticals, Inc., priority 2005, dated 2017)

Tested on: Trichophyton rubrum (T. rubrum)
Test: TurChub zone of inhibition assay through full thickness human nail
Type: cell-based
Conditions: C10 10% w/v solution, 40 μL/cm^2 per day over five days; first experiment (FIG. 6), six cells
Procedure: The aim of the current study was to assess and compare the perungual absorption of C10 in a simple vehicle using MedPharm's TurChub® model (see http://www.medpharm.co.uk; specificaly http://www.medpharm.co.uk/downloads/Skin%20and%20nail%2dec%202003.pdf viewed Feb. 14, 2006). in a full scale experiment. Six replicates involving C10 were conducted and Formulations Y (8% ciclopirox w/w in commercial lacquer) and Z (Loceryl, 5% amorolfine w/v in commercial lacquer) were used as the reference formulations.
A dose of 40 μL/cm^2 of the test compound C10 in 50:50 propylene glycol:ethyl acetate was applied to a full thickness nail sample each day over a total duration of five days. Both the reference formulations were also applied at the same dose.
Placebo, test item C10 in vehicle and the reference formulations Y and Z were tested for their inhibition of Trichophyton rubrum (T. rubrum) growth after penetration through a full thickness human nail using a zone of inhibition measurement.

`OB1OCc2cc(F)ccc21` [C10, 5-fluorobenzo[c][1,2]oxaborol-1(3H)-ol] was tested, and the Zones of inhibition was 67, 46, 57, 38, 71% [one passage].

Not every entry of the source has a single result; some have several. They are shown here; other results are not. The source may hold further records. Values given together appear to be repeats (runs, samples, wells or individuals); a mean can stand among them.
